This is one part of the list.
T1: UNK ZnF1-6 (called full-length) (human, UniProt Q9C0B0 30-357)
T1 sequence: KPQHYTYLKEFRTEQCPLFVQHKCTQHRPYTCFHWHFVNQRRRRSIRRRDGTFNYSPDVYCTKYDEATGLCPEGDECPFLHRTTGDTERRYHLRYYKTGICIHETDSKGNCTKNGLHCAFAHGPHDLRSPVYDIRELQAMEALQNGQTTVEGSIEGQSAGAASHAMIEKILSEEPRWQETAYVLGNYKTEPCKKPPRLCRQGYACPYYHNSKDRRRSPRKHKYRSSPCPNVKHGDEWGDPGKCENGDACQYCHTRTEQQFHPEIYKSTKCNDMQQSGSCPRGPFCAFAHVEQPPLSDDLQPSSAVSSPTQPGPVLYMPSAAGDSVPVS

B1: chr1:154584646:154584747:-|3pUTR|ENSG00000160710|unk|FALSE|unique (ssRNA)
RNA: GGGAGUUCUACAGUCCGACGAUCAUGCUCCAGUGACAGAUGGAUUAGGGUGUGUCAUACUAGGGUGUGAGAGAGGUAGGUCGUAGCAUUCCUCAUCACAUGGUCAGGGGAUUUUUUUUUCUCCUUUUUUUUUCUUUUUAAGCCCAACAGAGGAUUGAGCAUCA
B2: chr6:83525322:83525423:+|3pUTR|ENSG00000146250|msi1|FALSE|unique (ssRNA)
RNA: GGGAGUUCUACAGUCCGACGAUCACAAUUACAAUGUGUAUUAUUUAAAAAUGGGAGAAAUAGUUUGUUCUAUGAAAUAAACCUAGUUUAGAAAUAGGGAAGCUGAGACAUUUUAAGAUCUCAAGUUUUUAUUUAACUAAUACUCAACAGAGGAUUGAGCAUCA
B3: chr19:10690846:10690947:+|3pUTR|ENSG00000129351|msi1|total|mutant (ssRNA)
RNA: GGGAGUUCUACAGUCCGACGAUCGAAAGAGGUGAAAGAACAAGUUGUGUGCCCGAAAACUUUUGAGGAAUUCUUAUUUGUGUCCGAGCAGAGGAGGUCCCAGAUACCAAGUGGCGCCUCCCAGGAAAGGCUGGGAGAAGAGGUCAACAGAGGAUUGAGCAUCA
B4: chr2:150470103:150470218:-|CDS|ENSG00000115963|unk|total|mutant (ssRNA)
RNA: GGGAGUUCUACAGUCCGACGAUCAUGGCCAAACAGAUUGGAGCAGCUACUUAUAUCGAAUGCUCAGCUUUACAGUCGGAAAACCGCGUCAGAGACAUUUUUCACGUUGCCACCUUGGCAUGUGUAAAUAAGACAAAUAAAAACCAACAGAGGAUUGAGCAUCA
B5: chr5:52955293:52955406:+|3pUTR|ENSG00000213949|unk|FALSE|unique (ssRNA)
RNA: GGGAGUUCUACAGUCCGACGAUCUACCAACCAGUGUGAGCUGACUUCAGCACACCACUGAGACAGAUUACACGAUAGACAGAUAGAUAGAUAGAUAGAUAGAUAGAUAGAUAGAUAGAUAGAUAGAUAUUGAUAGAGAACAUGCAACAGAGGAUUGAGCAUCA
B6: chr7:107202531:107202632:-|3pUTR|ENSG00000164597|msi1|total|mutant (ssRNA)
RNA: GGGAGUUCUACAGUCCGACGAUCUAUUCUGAGAACUCAUAAAUAAAAUUCAGCCAAGAUUAAUCAAUCAAUCAAUCAAUCAGCCGACGUCAGAGAUAAGCAACUUUUUUUUCCAUUUAUUUGAAAUAAUAUACAAGAAUACCGCAACAGAGGAUUGAGCAUCA
B7: chr19:43785873:43786072:-|three_prime_utr|ENSG00000159871|control|control|control (ssRNA)
RNA: GGGAGUUCUACAGUCCGACGAUCGAAAUGAAGAAAAAAGGAGAAAGGAGAAAAGCAUGCACUUGGAGACUAAGACCAGGAGAUAGAAACAGAGAAGCAAGACAAGGCGCAGUGGCUCACACUUGUAAUUCCAGCACCUUAGGACAACAGAGGAUUGAGCAUCA
B8: chr13:110149936:110150037:-|3pUTR|ENSG00000187498|msi1|FALSE|unique (ssRNA)
RNA: GGGAGUUCUACAGUCCGACGAUCUUCUUGUAUUAUAAUUAAUUUUCUACCCCCAGAGAUAAAUGUUUGUUUAUAUCACUGUCUAGCUGUUUCAAAAUUUAGGUCCCUUGGUCUGUACAAAUAAUAGCAAUGUAAAAAUGGUUUCAACAGAGGAUUGAGCAUCA
B9: chr21:43695798:43695899:+|3pUTR|ENSG00000160208|msi1|FALSE|unique (ssRNA)
RNA: GGGAGUUCUACAGUCCGACGAUCACAAUAUUUUGUAAAAUGAUGCUUCCCCCUUCUCCAUGGUCUAGUCAAUUUUGUACAAUUAGGUAUCUGACUUUACAAGUUUGUUAUCCUUUCUAAUUUUUACUGAACUGAAAGCACAAACAACAGAGGAUUGAGCAUCA
B10: ENSG00000137168:stop:overlap|stop_codon|ENSG00000137168|stop_codon|NA|stop_codon (ssRNA)
RNA: GGGAGUUCUACAGUCCGACGAUCCAAACUCCCAGGACCGCCCUGUGGACGACGUGAAGAUCAUUAAGGCAUACCCUUCUGGGUAGACUUGCUACCCUCUUGAGCAGCUCUUCUGAGAUGGCCCCAGUGAACCAGCUUCUAGAUCAACAGAGGAUUGAGCAUCA
B11: ENSG00000119285:stop:overlap|stop_codon|ENSG00000119285|stop_codon|NA|stop_codon (ssRNA)
RNA: GGGAGUUCUACAGUCCGACGAUCUGUCGCCUUACUUCCUGCUUAAGCCAGCACAGAAGUGUCUGGAGUGGUUGAUUCACAGGUAGCUAAUAGAAUUACAGAAAUAACUAUGGGUUAAUCACUUUGGUCUUGUAAAAAAUUAAGCAACAGAGGAUUGAGCAUCA
B12: chr1:119913532:119913650:-|3pUTR|ENSG00000134250|msi1|FALSE|bound_elsewhere (ssRNA)
RNA: GGGAGUUCUACAGUCCGACGAUCUCAUGCUCUUGGCAAUUUCUUUGACUUUCUUUUAAGGGCAGAAGCAUUUUAGUUAAUUGUAGAUAAAGAAUAGUUUUCUUCCUCUUCUCCUUGGGCCAGUUAAUAAUUGGUCCAUGGCUACAACAGAGGAUUGAGCAUCA
B13: ENSG00000107863:be:win_4651|CDS|ENSG00000107863|bound_else_gene|NA|bound_elsewhere_windowed (ssRNA)
RNA: GGGAGUUCUACAGUCCGACGAUCAGCACGUCUUCCCAGGCCUCCCUGGCAAGGUUUUCCAUGAAGAAAUCAACCAGUCCAGAAACGAAACAUAGCGAGUUUUUGGCCAACGUCAGCACCAUCACCUCAGAUUAUUCCACCACACAACAGAGGAUUGAGCAUCA
B14: chr10:110135209:110135310:+|3pUTR|ENSG00000148700|msi1|FALSE|bound_elsewhere (ssRNA)
RNA: GGGAGUUCUACAGUCCGACGAUCCUCUCUAUUGGAAGAUUUUUUUAAUGUUCUACAUCAUUUAUGUUGUAUUACAAUGUAUGUAGAAAUAGUAACCUGUGAACUAUGCUUUUCCAUAACUUUUUAAAAAUAUAUAUAUCUAAACAACAGAGGAUUGAGCAUCA

Target: T1, UNK ZnF1-6 (called full-length)
Assay: nsRBNS (natural sequence RNA bind-n-seq); RBNS binding buffer (assumed for nsRBNS): 25 mM Tris pH 7.5, 150 mM KCl, 3 mM MgCl2, 0.01% Triton X-100, 500 ug/ml BSA, 20 U/ml SUPERase-In, 4 C; UNK is unkempt and MSI1 is Musashi-1; names of the RNAs are library labels; protein concentration not given here; high values mean tight binding

Binder | binding signal
B1 | 2.8 enrichment R
B2 | 4.43 enrichment R
B3 | 0.706 enrichment R
B4 | 0.384 enrichment R
B5 | 24.7 enrichment R
B6 | 1.94 enrichment R
B7 | 1.04 enrichment R
B8 | 119 enrichment R
B9 | 1.9 enrichment R
B10 | 0.7 enrichment R
B11 | 0.511 enrichment R
B12 | 1.97 enrichment R
B13 | 0.486 enrichment R
B14 | 7.46 enrichment R

Source: article PMC12136788
